# Source: PubChem BioAssay AID1508623 (National Center for Advancing Translational Sciences (NCATS), 2021)
# In all, about 48,000 compounds went through this assay and about 450 (0.94%) were called active. Inconclusive results (about 19%) are left out. Calls follow the shape of the dose curve; as a rule, active = well fitted inhibition curve with a large enough effect; inconclusive = small, poorly fitted or top-dose-only effect; inactive = no such curve, though single readings can be large or run the other way. This is one part of the list.
# Assay: Primary qHTS for Identification of Small Molecule Inhibitors of Huntingtin Promoter Activity; also: nearly all actives have a fitted effect of over 50% in size
# Conditions: HEK293 HTT promoter firefly luciferase reporter (activity 0% = vehicle and -100% = no light), 24 h; series mostly up to 57.5 µM; activity change, negative = inhibition: at the top concentration
# Outline: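 Firefly luciferase readout (Dual-Glo, 10 min RT) after 24 h, 37 °C compound exposure (final up to 57.5 uM) of HEK293 reporter cells cultured 24 h beforehand; PTC124 at 50 uM final as control inhibitor; activity scaled vehicle 0%, zero RLU -100%.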
# Potency is read from the fitted curve at half-maximal effect.
Compound,"activity change, negative = inhibition",Potency
COc1ccc(-c2cc(C)no2)cc1S(=O)(=O)NC(C)C,inactive: -18.4%,
COc1cccc(NC(=O)N2CCN3CCCCC3C2)c1 (stereo not given),inactive: -0.831%,
CCCOC(=O)CSc1ncnc2sc3c(c12)CCC(C)C3 (stereo not given),inactive: 54.3%,
COc1cc(OC)cc(N2C(=O)N(CC(=O)c3ccc(F)cc3)c3ccccc3S2(=O)=O)c1,inactive: -8%,
COc1ccc(-c2noc(Cn3c(=O)c4ccccc4n(CC(=O)Nc4cccc(OC)c4)c3=O)n2)cc1,inactive: -29.4%,
Cn1nnnc1SCCCNCc1ccccc1OCc1ccccc1Cl,,active: 14.1 µM
COc1ccccc1NC(=O)c1sc2nc(N3CCOCC3)c3c(c2c1N)CC(C)(C)OC3,inactive: -0.204%,
Cc1ccc(NC(=O)CSc2ncc3c(n2)-c2ccc(Cl)cc2N(C)S3(=O)=O)cc1F,inactive: -23.1%,
CCOC(=O)c1ccc(NC(=O)c2oc(=O)c3ccccc3c2-c2ccccc2)cc1,inactive: -7.21%,
Cc1cccc(Cn2c(=O)n(CC3CCC(C(=O)N4CCOCC4)CC3)c(=O)c3sccc32)c1 (stereo not given),inactive: -27.2%,
COc1ccccc1-c1nc2c(c(SCC(=O)Nc3c(C)cc(C)cc3C)n1)Cc1c(CO)cnc(C)c1O2,inactive: -14.3%,
CCC(=O)N1CCc2cc(S(=O)(=O)CCC(=O)NCc3ccc(C)cc3)ccc21,inactive: 3.56%,
CCOC(=O)c1c(NC(=O)c2cc3nc(-c4ccc(OC)cc4)cc(C(F)(F)F)n3n2)sc2c1CCC(C)C2 (stereo not given),inactive: -9.53%,
CCc1cccc(NC(=O)C(Cc2ccccc2)NS(=O)(=O)c2ccc3c(c2)oc(=O)n3C)c1 (stereo not given),inactive: -25.7%,
CCc1cccc(NC(=O)c2cc3c(=O)n(Cc4ccc(OC)cc4)ccc3nc2C)c1,inactive: -26.1%,
CCCSc1nnc2c(n1)OC(c1sccc1C)Nc1ccccc1-2 (stereo not given),inactive: 49.3%,
CCOc1ccc(CCNC(=O)c2ccc(Nc3nc4ccccc4n4nnnc34)cc2)cc1OCC,inactive: 1.24%,
CCOC(=O)c1ccc(NC(=O)c2c(N3CCCC3=O)c3cc(OC)ccc3n2C)cc1,inactive: -39.3%,
Cc1c(Cl)cccc1NC(=O)CN1C(=O)COc2ccc(S(=O)(=O)N3CCOCC3)cc21,inactive: -0.644%,
CCc1ccc(Cn2c(CNS(=O)(=O)c3ccc(F)c(Cl)c3)nc3cccnc32)cc1,inactive: -14%,
CC(=O)N1CCCC1c1nc2ccccc2n1Cc1ccccc1 (stereo not given),inactive: -6.36%,
CC(=O)N1CCc2cc(S(=O)(=O)NC(Cc3ccccc3)C(=O)Nc3cccc(C)c3)ccc21 (stereo not given),inactive: -32%,
Oc1c(C(c2ccc(F)cc2)N2CCOCC2)sc2nc(-c3ccco3)nn12 (stereo not given),inactive: 19.3%,
O=C(Cn1ncc2c([nH]c3ccccc32)c1=O)Nc1cccc(C(F)(F)F)c1,inactive: 3.15%,

Compound,"activity change, negative = inhibition",Potency
CCc1ccc(-n2c(=O)c3c4c(sc3n(Cc3ccc(C)cc3)c2=O)CCC4)cc1,inactive: -11.4%,
Cc1cc(C)cc(N2CC(c3nc(-c4cccc(Cl)c4)no3)CC2=O)c1 (stereo not given),inactive: -31.8%,
Cc1ccccc1CN1c2ccccc2S(=O)(=O)c2ccccc21,inactive: 0%,
O=C1C(Nc2ccccc2)=CC(c2ccc(Br)cc2)N1c1ccccc1 (stereo not given),inactive: 30%,
COc1ccc(C)cc1NC(=O)NCc1cccn1Cc1ccccc1,inactive: -7.07%,
COc1ccccc1NC(=O)CN(C)S(=O)(=O)c1ccc2c(c1)c(=O)n(C)c(=O)n2C,inactive: -10.3%,
Cc1ccc(CCNC(=O)NCc2noc3ccccc23)cc1,inactive: -5.96%,
O=C(NCc1ccccc1)c1ccc2nc(CCc3ccccc3)oc2c1,inactive: 42.8%,
CC1CCCN(S(=O)(=O)c2ccc3[nH]c(=O)cc(C(=O)NCCc4ccc(Cl)cc4)c3c2)C1 (stereo not given),inactive: -12.5%,
CCOCCCN(C(=O)Nc1ccc(Cl)cc1)C1CCN(C(C)=O)CC1,inactive: -4.17%,
Cc1c(CNC2CCCCCC2)c(C(=O)O)c(C)n1Cc1ccc(F)cc1Cl,inactive: -17.2%,
O=C(COc1ccc(Cl)cc1)Nc1nnc2n1CCS2,inactive: -2.29%,
O=C1CN2Cc3c(ccc(Cl)c3Cl)N=C2N1,inactive: -7.29%,
COc1ccc(S(=O)(=O)NCCc2csc3nc(-c4ccc(OC)c(OC)c4)nn23)cc1C,inactive: -0.187%,
CC(C)(C)c1ccc(C(=O)Nc2cc(-c3nc4ccccc4o3)ccc2Cl)cc1,inactive: 6.85%,
CCCCn1c(=O)c2oc3ccccc3c2n(CC(=O)Nc2cccc(Cl)c2C)c1=O,inactive: 6.16%,
CCc1ccccc1NC(=O)C1CCN(S(=O)(=O)c2ccc3[nH]c(=O)ccc3c2)CC1,inactive: -4.3%,
COc1ccc(CNC(=O)c2nc(Cn3nc(C)c(Br)c3C)no2)cc1OC,inactive: -40.5%,
COc1cc(NC(=O)c2sc3nc4n(c(=O)c3c2C)CCCCC4)cc(OC)c1OC,inactive: -16.1%,
COc1ccc(CCNC(=O)C(=O)Nc2ccc(C)cc2)cc1OC,inactive: -10.1%,
COc1ccc(N2CCN(S(=O)(=O)c3c(C)[nH]c(=O)[nH]c3=O)CC2)cc1,inactive: 0.183%,
CCN(C(=O)c1cc2cc3ccc(OC)cc3nc2o1)c1cccc(C)c1,inactive: -14.6%,
Cc1ccc(C)c(NC(=O)CSc2nc(-c3ccccc3)cc(=O)[nH]2)c1,inactive: -4.5%,
COc1ccc(-c2nc(C(=O)Nc3ccc(C(C)=O)cc3)nn2-c2cccc(Cl)c2)cc1,inactive: -24.7%,

Compound,"activity change, negative = inhibition",Potency
CC(C)NCC(O)COc1ccc(COCCOC(C)C)cc1 (stereo not given),inactive,
COc1ccc(CN(Cc2ccco2)c2cnc(S(C)(=O)=O)nc2C(=O)Nc2ccc(F)cc2)cc1,inactive: -28.1%,
COc1ccc(OC)c(-c2csc(-c3c(N)c(C(=O)c4ccccc4)n4ccccc34)n2)c1,inactive: 0.64%,
Cn1c(=O)n(C/C=C/c2ccccc2)c(=O)c2c1nc1n2CCN1c1ccccc1,inactive: -2.87%,
CCCCOc1ccc(CNC(=O)C2COc3ccc(OC)cc3C2)cc1 (stereo not given),inactive: -10.4%,
COc1ccc(S(=O)(=O)N(CC(=O)Nc2cccc(C(F)(F)F)c2)c2ccc(C)cc2)cc1,inactive: -32.7%,
CCOc1ccc(C(=O)c2cn(CC(=O)Nc3ccc4c(c3)OCO4)c3ccc(OCC)cc3c2=O)cc1,inactive: -19.8%,
COc1ccc(-n2c(=O)c3c(c4cc(OC)ccc4n3C)n(Cc3cc(C)ccc3C)c2=O)cc1,inactive: 0.202%,
COC(=O)c1cccnc1-n1c(=O)c2cccnc2n(CC(=O)Nc2c(C)cc(C)cc2C)c1=O,inactive: -10.6%,
O=C(Cn1ncn2nc(-c3cccs3)cc2c1=O)NCc1cccc(Br)c1,inactive: -12.8%,
Cc1ccc(NC(=O)CN2C(=O)COc3ccc(S(=O)(=O)N4CCCCC4)cc32)cc1N(C)C,inactive: -6.31%,
Cc1cccc(CNC(=O)c2ccc(NC(=O)N3CC(C)Sc4ccccc43)cc2)c1 (stereo not given),inactive: -7.9%,
CC(C)CN(CCNC(=O)CN1C(=O)CSc2ccc(S(=O)(=O)N3CCOCC3)cc21)CC(C)C,inactive: -11.4%,
CCOc1ccc(S(=O)(=O)N(CC(=O)Nc2ccc3c(c2)OCO3)c2ccccc2)cc1,inactive: -9.61%,
O=C(/C=C\c1ccc2c(c1)OCO2)NC1CC(=O)N(c2cccc(F)c2)C1 (stereo not given),inactive: -19.5%,
COc1ccccc1CNC(=O)c1ccc2c(c1)CCN2S(=O)(=O)c1ccccc1,inactive: -22.3%,
O=C(Nc1c(-c2ccc(F)cc2)nc2ccccn12)c1ccccc1F,inactive: -7.94%,
Cc1ccc(-n2c3c(c(=O)[nH]c2=O)C(NC(=O)c2ccccc2C)(C(F)(F)F)C(=O)N3)cc1 (stereo not given),inactive: -6.69%,
COc1cccc(/C=C/c2onc(C)c2S(=O)(=O)N2CCC(C(=O)N3CCC(C)CC3)CC2)c1,inactive: -20.5%,
COc1ccccc1N1CCN(C(=O)CSc2n[nH]c(-c3ccccc3)n2)CC1,inactive: -19.3%,
COc1ccc(-c2cn3c(n2)sc2cc(C(=O)Nc4cccc(OC)c4)ccc23)cc1,inactive: -13.4%,
COC(=O)c1scc(-c2ccc(C)cc2)c1S(=O)(=O)Nc1ccc(N(C)C)cc1,inactive: 0.569%,
CCOC(=O)C1=C(CN2CCN(c3ccccc3F)CC2)NC(=O)NC1c1ccc(Cl)cc1 (stereo not given),inactive: -7.55%,
CCOc1ccc(NC(=O)CC2C(=O)N(c3ccccc3)C(=O)N2Cc2ccc3c(c2)OCO3)cc1 (stereo not given),inactive: -17.7%,

Compound,"activity change, negative = inhibition",Potency
Cc1nc2c(-c3ccccc3)c(C)nn2c(C)c1CCC(=O)NCc1ccc(F)cc1,inactive: -11.6%,
Cc1c(Cl)cccc1-n1nc(C)c2c(C(=O)NCc3ccccc3)cc(C3CC3)nc21,inactive: -21.6%,
Cn1c(=O)oc2cc(S(=O)(=O)Nc3ccccc3O)ccc21,inactive: -10.5%,
Cc1ccc(-c2cc(NC(=O)COc3ccc(Cl)cc3C)on2)cc1,inactive: 16.1%,
COc1ccc(-c2cc(C(F)(F)F)nc(SCC(=O)N3CCC(C)CC3)n2)cc1,inactive: -3.06%,
Cc1ccc(NC(=O)N2CCN(C)c3ncccc32)cc1C,inactive: 5.2%,
O=C(CN1C(=O)COc2ccc(S(=O)(=O)N3CCCCCC3)cc21)NCCc1ccccc1,inactive: -2.99%,
COc1cc(OC)c(N(C)C(=O)Cn2ncc3c(=O)oc4ccccc4c32)cc1Cl,inactive: -1.03%,
Cc1ccc(CN2C(=O)N(c3ccccc3)C(=O)C2CC(=O)Nc2ccccc2)cc1 (stereo not given),inactive: -18.4%,
COCCNC(=O)c1c(NC(=O)c2cc(=O)c3cc(Cl)ccc3o2)sc2c1CCCC2,inactive: 2.7%,
COC(=O)c1ccccc1NC(=O)N1CCC(n2c(C)nc3cccnc32)CC1,inactive: 0%,
COc1ccccc1NC(=O)Cn1nnc(C(=O)Nc2ccccc2Br)c1N,inactive: -8.64%,
CC(=O)N1CCN(c2csc3ccc(Br)cc3c2=O)CC1,inactive: 20.2%,
Cc1ccc(CNC(=O)c2cc(=O)c3cc(C)cc(C)c3o2)cc1,inactive: 18.5% [at 11.5 µM],
CCC(C)NC(=O)CSc1nc(-c2ccc(F)cc2)cc(C(F)(F)F)n1 (stereo not given),inactive: -5.74%,
COC(=O)c1ccccc1NC(=O)c1cnc2sc(N3CCOCC3)nn2c1=O,inactive: 5.99%,
CCOc1ccc(NC(=O)c2cc3cc4cc(OC)ccc4nc3s2)cc1,inactive: -2.2%,
Cc1cccc(NS(=O)(=O)c2ccc3c(c2)OCC(C(=O)N2CCCC2)O3)c1C (stereo not given),inactive: -27%,
COc1cccc(C(=O)Nc2cccc(C(=O)OCc3cc(=O)n4c5c(sc4n3)CCCC5)c2)c1,inactive: -23.3%,
COc1ccc2cc(CNc3ccc(C)cc3)c(=O)n(CC(=O)Nc3cccc(C(F)(F)F)c3)c2c1,inactive: -29%,
CCOC(=O)CSc1nc2c(sc3cccc(F)c32)c(=O)n1Cc1ccc(OC)cc1,inactive: -8.03%,
O=c1c2cccnc2n(Cc2cccc(F)c2)c(=O)n1Cc1ccccc1Cl,inactive: -19.4%,
Cc1ccc(S(=O)(=O)c2cn(CC(=O)Nc3ccc4c(c3)OCO4)c3ccccc3c2=O)cc1C,inactive: -24.7%,
